Here are results for 19 molecules from the supplement of paper PMC12632987.

Whole data set: some 4,500 sequences, median “median log2 fold change of GCK-ALFA target abundance (FLAG IP / Myc IP barcode read proportion)” near 0.078, cut for the lowest 2% near -0.6. The list shows a part of the results.

First the molecules themselves.
B1: GBRAP_26_5438 (protein)
chain: IEEVEREAIERLAEVAAKIGDPEKAAAALAEAITLLHEFVETVEEEDLSEEEMEELAEEKVEELREFLEDLGLSEELREELVETFREALKRIAEELKKER
B2: GBRAP_52_6384 (protein)
chain: AVEEAAELLWRAIELIMEGGPREEVEKLAKELLEFDEETLEEAAELVAERVRGLSPEEAEAALEATFELADILEELGLPEEVASLIEAEIGKAAYEVLQR
B3: GBRAP_128_3408 (protein)
chain: STEETVERARELLEAMLTADEEEQRRLAEELAELLLESDLETVERIVEVILEKLPEFTAEQLEILADVLEARRDEFTPEKQELVSEVIVEALNLAEELEE
B4: GBRAP_166_4899 (protein)
chain: AVEAAIARINALAAETIANIASLSDEELLARFVEMAEIAEEAGPTPELRAATAAAFVAILAAAEAAGRDPDTVASLILAAVGPNEKLLDAVEAAIAAARA
B5: GBRAP_184_5072 (protein)
chain: TVVEETLRVENVEEARAQMDALEERLRDVKGTLVVHLEMERFDRETVEAVVDRLAEMKEAGLVDRVVLGLDADVTEEEVDWAVALADEAGIQLVLALEEE
B6: GBRAP_160_4635 (protein)
chain: MESLEEMKEVVEEYTKIALEYIDEGDLDGALAALRMMVGDLVMLASEDPRFSDEDVDKLAEAGDAAVAEFEANRDASKEELKKLVEEAAKKLKELIEEFY
B7: GBRAP_160_4831 (protein)
chain: SEKLEEFKKFIDEEFEETLEMMKGESTEQRAAIVRVTFGRIIMEGRELGVLTDELEDFIREVEDEVVATILANPDLTDEELEALLNEARDKIIEALEKSS
B8: GBRAP_160_4591 (protein)
chain: MEALERAKEIVEEELEEAEEMIVGETAEQRATIVAGAGGEIIWELDELPEATDELLDRVDAIIDAAVARILANPDLTEEEVRALLREAREAIKRAIEEAF
B9: GBRAP_95_7055 (protein)
chain: DDAELAAQDLAEVVDTLVELGDEDAARRAAERLVALHREEGPLPIPASVSLEARKLILTVAHETASPADLEALLAALLASATTEEDKAALRAHHAALLAA
B10: GBRAP_128_3417 (protein)
chain: ADEEKVAEARALLAEMLTADPATAAALADRLVALIAAADLETAEAIGEVILEELPRFTAEQLDILADAIRAALPAATPEKAEILADVLVAALNEAEEKEE
B11: GBRAP_139_3753 (protein)
chain: MSLEELIAEAVALARAIPEDPEGAIRRIAELLLSVDDEDAERVARAIAEELLGLPFDEFEAISDALIETLLEEFGNEDLADIVEAERNRALAEIAVREEA
B12: GBRAP_160_4010 (protein)
chain: SAEIEALKKEIRELFEELKEDIKGLTPEERLTLARGTIGDIIQLALESPSVSDETEDKIAEIGDEFIARAEANADAPLEVWVALIEEHEKRVFELLDESE
B13: GBRAP_166_4913 (protein)
chain: SMEELVEKAKKEIEELVKKMPELDEEGQIEALIEIAEIIEKLKEAGASEEEILEVLRHLAESLKEEGLDVRHYMAIVAAAAGFDEEMMDKIDEIVEEVLA
B14: GBRAP_128_3588 (protein)
chain: SSEEVREYVRKLLEAMKTANAEERKELARELFAYFATLSLEEQEAAVETIKELLPELSAEDLDVLADAAREARPQLSPERAELVADLEVEALNEAVEKEE
B15: GBRAP_160_4071 (protein)
chain: SAALEKLKKEVEELVEEAKKLIEGETPEQRLVIIEVELGNIILEFDSNEEVSDELADKIAEIADETVEEFRANPDMSEEEVKKLLEETRDKILKLIDEAE
B16: GBRAP_78_6669 (protein)
chain: ELEEKVEEALKLVSEAARLSKVLPEEERNALLDHLVDAMSDLLESIEEGIKLENVEEALKHLNEAEKLLEKLNSPEAEPILKLVKEAKELVEEVIKELKK
B17: GBRAP_128_3357 (protein)
chain: LDEEFLEEVRALWEEIVNSDVETTYELTKELLRKIAEASPEEREAAVEIAHEYLPKLTAEKLEAVADAIREMWPEFDPYTRELMADLEVEALNLAEEKEE
B18: GBRAP_35_5531 (protein)
chain: NSDEEIAEMLLNTMEDLVLALPDVSPEEQLALARHLIRLARDFIELKTKSAELIKRLIEVLERAIELIKASDLPPEEKAALIAELEKLKEEAEKLLKEVE
B19: GBRAP_125_3032 (protein)
chain: EKEELAKNLALIAKALGFSEDDVKELVELAKKHGIKGAMIAIALAEGNEELAELLEKLTEEEVAKVVKELAKYLEENPDLTPEEVLEKLKEIAEKAVKES

Chain of GABARAP, O95166 (O95166 whole entry, the tested form may be a part): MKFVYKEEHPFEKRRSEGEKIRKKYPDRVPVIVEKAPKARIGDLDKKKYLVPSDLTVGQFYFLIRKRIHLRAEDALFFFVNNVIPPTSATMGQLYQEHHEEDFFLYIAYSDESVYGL

The experiment addresses GABARAP, O95166. In words: median log2 fold change of GCK-ALFA target abundance (FLAG IP / Myc IP barcode read proportion) (log2 ratio); each designed protein is fused to an ALFA-tag nanobody in HEK293 cells to bring the named protein to FLAG-tagged glucokinase (GCK); Myc marks an untargeted standard; higher = target protein stabilised (more abundant). Particulars: target protein: 3xFLAG-MCP-GCK-ALFA reporter; HEK293 landing pad (RPLP). In a few lines:
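Binders fused to an ALFA nanobody were recombined as a library into HEK293 landing-pad cells, which were induced with 2 μg mL^−1 doxycycline and then transfected to express a FLAG-tagged target and a Myc-tagged standard. After 48 h, circular RNA barcodes recovered by anti-FLAG and anti-Myc immunoprecipitation of lysates were reverse transcribed, amplified and sequenced. Each binder's target abundance is the median log2 ratio of FLAG to Myc barcode read proportions, from barcodes present at ≥10^−7 in both replicates, binders carrying ≥3 barcodes per replicate, a 10^−6 pseudocount and pooled replicates.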
Consider B1, for which the “median log2 fold change” value is -0.152. To B2 belongs -0.543.

Turning to B3, the “median log2 fold change” value came out at 0.0331. To B4 belongs 0.125; to B5, 0.0731; to B6, -0.119. In the case of B7 it was 0.188; in that of B8, -0.395. With B9, the “median log2 fold change” value amounted to 0.283. For the molecule B10, the “median log2 fold change” value turned out to be 0.182.

B11: the “median log2 fold change” value is -0.139.

As to B12, the “median log2 fold change” value worked out at 0.158. As for B13, the “median log2 fold change” value stood at 0.0349. To B14 belongs -0.153; to B15, -0.191.

Turning to B16, the “median log2 fold change” value worked out at 0.177. In the case of B17 it was 0.152; in that of B18, 0.118; in that of B19, 0.147.
